About 5,800 (2.1%) of roughly 270,000 compounds were called active. This list was built around the results that the source calls inconclusive (neither active nor inactive); the mix of calls is not that of the screen. Calls come from the whole dose curve; as a rule, active = well fitted inhibition curve with a large enough effect; inconclusive = small, poorly fitted or top-dose-only effect; inactive = flat fitted curve, though single readings scatter. Where the call is inconclusive, the potency comes from a doubtful curve fit.
The molecules below were run against Microtubule-associated protein tau (Homo sapiens) (UniProt P10636) (assay: qHTS for Inhibitors of Tau Fibril Formation, Thioflavin T Binding). Details: recombinant tau K18 P301L (four-repeat tau fragment), heparin-induced fibrillization, ThT fluorescence; series mostly up to 57.4 µM.
How it was run: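 Recombinant human tau K18 fragment […] carrying P301L, 15 uM unlabeled plus 0.24 uM Alexa 594-labeled, was fibrillized with 20 uM heparin in 100 mM sodium acetate pH 7 for 6 hr at 37 C; 30 uM ThT fluorescence read after 1 hr.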
Note: nearly all actives have a fitted effect of over 55% in size.
Potency is the fitted concentration of half-maximal effect; tags give direction and shape of the fitted curve.

Chain of UniProt P10636 (P10636 whole entry, looked up, the tested form may be a part): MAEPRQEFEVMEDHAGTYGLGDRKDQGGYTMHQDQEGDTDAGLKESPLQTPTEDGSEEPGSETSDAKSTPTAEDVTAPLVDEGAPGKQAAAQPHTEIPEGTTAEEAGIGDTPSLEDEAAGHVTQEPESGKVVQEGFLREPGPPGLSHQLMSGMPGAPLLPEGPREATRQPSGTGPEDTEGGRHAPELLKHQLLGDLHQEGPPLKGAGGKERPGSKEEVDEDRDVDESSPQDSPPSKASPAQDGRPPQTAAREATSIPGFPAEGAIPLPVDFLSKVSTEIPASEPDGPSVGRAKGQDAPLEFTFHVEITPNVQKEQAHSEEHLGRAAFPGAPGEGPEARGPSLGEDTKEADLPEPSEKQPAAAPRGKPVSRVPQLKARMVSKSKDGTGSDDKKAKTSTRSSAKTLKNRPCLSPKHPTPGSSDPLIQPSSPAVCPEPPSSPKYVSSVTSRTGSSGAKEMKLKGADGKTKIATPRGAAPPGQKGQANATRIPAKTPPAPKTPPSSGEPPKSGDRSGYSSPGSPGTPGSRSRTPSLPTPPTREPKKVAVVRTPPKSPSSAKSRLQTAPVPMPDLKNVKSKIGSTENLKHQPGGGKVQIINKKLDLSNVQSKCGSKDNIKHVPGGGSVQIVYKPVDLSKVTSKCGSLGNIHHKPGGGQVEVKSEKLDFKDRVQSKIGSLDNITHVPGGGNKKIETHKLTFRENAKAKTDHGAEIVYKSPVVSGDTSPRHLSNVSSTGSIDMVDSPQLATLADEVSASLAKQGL

SMILES	Potency
CC1=CC2=NC(=O)/C(=C\c3cccn3CCOc3cccc(C)c3)C(=N)N2O1	inconclusive: 20 µM [inhibitor, partial curve]
COc1ccc(C(C2C(=O)CC(C)(C)CC2=O)C2C(=O)CC(C)(C)CC2=O)cc1COCC(F)(F)F	inconclusive: 0.447 µM [inhibitor, full curve, poor fit]
N#CCC(=N)N1CCN(c2cccc(Cl)c2)CC1	inconclusive: 31.6 µM [inhibitor, partial curve]
C=CCNc1nc(NCc2ccccc2)c(C#N)c2c1CN(C)CC2	inconclusive: 7.08 µM [inhibitor, partial curve]
CCCN(CCC)C(=O)C1CCN(c2cc(C)nc3c(-c4ccc(OC)c(OC)c4)c(C)nn23)CC1	inconclusive: 3.55 µM [inhibitor, single point]
CCN(CC)c1ccc(N2C(=O)/C(=C/c3cccs3)SC2=S)cc1	inconclusive: 3.16 µM [inhibitor, full curve, poor fit]
Nc1nc(Nc2ccccc2F)nc(NCCO)c1[N+](=O)[O-]	inactive
O=C(NCC1CCCO1)C1CCN(S(=O)(=O)N2CCCC2)CC1 (centres undefined)	inactive
O=C(Cc1c(Cl)cccc1Cl)NC1=NCCS1	inactive
Cc1ccc(C2CC(=O)NC(SCC(=O)Nc3nccs3)=C2C#N)cc1 (centres undefined)	inconclusive: 31.6 µM [inhibitor, partial curve, poor fit]
CCOc1ccc(-n2cc(-c3ccccc3)c3c(NC4CCCCC4)ncnc32)cc1	inconclusive: 17.8 µM [inhibitor, single point]
Cc1c(/N=C(\[O-])Nc2ccc(Br)cc2)sn[n+]1C	inconclusive: 28.2 µM [inhibitor, single point]
COCc1nc(-c2ccc(-c3ccc(C)cc3)nc2OC)no1	inconclusive: 28.2 µM [inhibitor, partial curve]
Cc1cccc(NC(=O)C2CCCN(S(=O)(=O)c3c(C)[nH]c(=O)[nH]c3=O)C2)c1C (centres undefined)	inactive
CC1CCCCN1C(=O)COC(=O)/C=C/c1ccc2ccccc2n1 (centres undefined)	inconclusive: 17.8 µM [inhibitor, partial curve]
Oc1c(Br)cc(Br)cc1C=Nc1ccc2c(c1)OCCO2	active: 11.2 µM
Cc1c(O)c2c3c(cccc3c1O)C(=O)N(c1ccccc1)C2=O	inconclusive: 20 µM [inhibitor, single point]
c1coc(-c2nnc3sc(Cc4cccs4)nn23)c1	inconclusive: 25.1 µM [inhibitor, partial curve]
CCc1ccc(NC(=O)Cn2c(=O)c(CNc3ccccc3)cc3cc(OC)c(OC)cc32)cc1	inconclusive: 39.8 µM [inhibitor, single point]
COc1ccccc1C(=O)NCCSc1c(C)[nH]c2ccccc12	inconclusive: 28.2 µM [inhibitor, partial curve]
O=C(Nc1ccc(Cl)cc1)Nc1nnc(CSCc2ccccc2Cl)s1	inconclusive: 39.8 µM [activator, single point]
NS(=O)(=O)c1ccc(CCN2C(=O)/C(=C\c3ccc(Cl)cc3)SC2=S)cc1	inconclusive: 2.82 µM [inhibitor, full curve, poor fit]
O=C(Nc1nc2c(s1)CCCC2)c1ccc(Br)o1	inconclusive: 6.31 µM [inhibitor, partial curve]

SMILES	Potency
CCOc1cc(/C=C2\NC(=S)N(c3c(C)n(C)n(-c4ccccc4)c3=O)C2=O)ccc1O	inactive
CCOc1cc2sc(N3CCC(C(=O)Nc4ccccc4C(=O)OC)CC3)nc2cc1Br	inconclusive: 11.2 µM [inhibitor, partial curve]
Cn1c2ccccc2c(=O)c2c(=O)n(-c3ccc(F)cc3)c(-c3cccs3)nc21	inconclusive: 3.55 µM [inhibitor, partial curve]
Cn1c(=O)c2c(nc(N/N=C/c3cccnc3)n2Cc2ccccc2)n(C)c1=O	inactive
O=[N+]([O-])c1cccnc1NCCNc1ncc(C(F)(F)F)cc1Cl	inconclusive: 22.4 µM [inhibitor, partial curve]
CS(=O)(=O)N1CCc2cc(C(=O)Nc3ccc(Cl)c(C(F)(F)F)c3)ccc21	inactive
Cc1ncc(CO)c2c1Oc1nc(-c3ccccc3)nc(SCC(=O)N3CCCCC3)c1C2	inconclusive: 17.8 µM [inhibitor, single point]
O=C(CCC(=O)Nc1ccc(F)cc1)N/N=C/c1cc([N+](=O)[O-])ccc1O	inconclusive: 5.62 µM [inhibitor, partial curve]
COC(=O)C(=Cc1ccc(OCc2ccc([N+](=O)[O-])cc2)c(OC)c1)C(=O)OC	inconclusive: 7.94 µM [inhibitor, partial curve]
O=C(NCc1ccco1)C(=O)NCC1OCCN1S(=O)(=O)c1ccc(Cl)cc1 (centres undefined)	inactive
Cc1csc(NC(=O)CSc2ncnc3c2cnn3-c2ccccc2Cl)n1	inconclusive: 28.2 µM [inhibitor, partial curve]
CCCCn1c(NC(=O)c2ccccc2Cl)c(C#N)c2nc3ccccc3nc21	inconclusive: 31.6 µM [inhibitor, single point]
CC1=Nc2cc(C(=O)NCc3ccc(C)cc3)ccc2Sc2ccc(Cl)cc21	inactive
CCN1CCC(N(Cc2cccc(OC)c2)C(=O)Nc2cccc(C)c2C)CC1	inactive
Cc1cc(C)cc(-n2c(C)cc(/C=N/NC(=O)c3cccc([N+](=O)[O-])c3C)c2C)c1	inconclusive: 2.82 µM [inhibitor, partial curve]
NC(=O)CC(NC(=O)Cc1cccc2ccccc12)c1ccc(NCCc2cccc(F)c2)c([N+](=O)[O-])c1 (centres undefined)	inconclusive: 12.6 µM [inhibitor, partial curve]
CCOc1ccccc1NC(=O)Cn1c(=O)oc2cc(S(=O)(=O)NCc3ccccc3)ccc21	inactive
Cc1cc(C)n(CC(=O)N2c3ccccc3Sc3ccc(C(F)(F)F)cc32)n1	inactive
COCC(=O)N1CCC(Oc2ccc(C(=O)NCCc3ccncc3)cc2)CC1	inconclusive: 7.94 µM [inhibitor, full curve]
CCOc1cc(C(Nc2cc(C)ccn2)c2ccc3cccnc3c2O)ccc1OC (centres undefined)	inconclusive: 11.2 µM [inhibitor, partial curve, poor fit]
c1ccc(CCSc2nccn2-c2ccccc2)cc1	inactive
COc1ccc(NCc2ccccc2[N+](=O)[O-])cc1OC	inconclusive: 20 µM [inhibitor, partial curve]
COc1ccc(N=Cc2[nH]c3ccccc3c2O)cc1	active: 17.8 µM

SMILES	Potency
O=[N+]([O-])c1cc(S(=O)(=O)NCCN2CCOCC2)ccc1Sc1nnnn1-c1ccccc1	inconclusive: 15.8 µM [inhibitor, partial curve]
CCN(CC)S(=O)(=O)c1cc([N+](=O)[O-])ccc1NNC(=O)Nc1ccc(Cl)c(Cl)c1	inactive
CO/N=C/c1ccc(Sc2ccccc2)c([N+](=O)[O-])c1	inconclusive: 44.7 µM [inhibitor, single point]
O=C1C2C3C=CC(C4CC34)C2C(=O)N1/N=C/c1ccc(-c2ccc(Cl)cc2[N+](=O)[O-])o1 (centres undefined)	inconclusive: 15.8 µM [inhibitor, partial curve]
CN(C)c1ccc(C(=C2C=CC(=[N+](C)C)C=C2)c2ccc(N(C)C)cc2)cc1	active: 5.01 µM
Cc1c(NC(=O)Nc2ccccc2Cl)c(=O)n(-c2ccccc2)n1C	inactive
CC(=C1C(=O)c2ccccc2C1=O)N1CCc2ccccc2C1	inconclusive: 22.4 µM [inhibitor, partial curve]
Cc1cccc(C)c1NC(=O)C(=O)NCC(c1cccnc1)N1CCc2ccccc21 (centres undefined)	inactive
CC(C)C(=O)Nc1cccc(NC(=O)c2cccc([N+](=O)[O-])c2)c1	inactive
Cc1ccc(OCCSCc2nnc(NC(=O)Nc3cccc(Cl)c3)s2)cc1	inactive
Fc1ccc(-n2c(-c3ccc4ccccc4n3)n[nH]c2=S)cc1	inactive
COc1ccc(-c2csc(NC(=S)NC(=O)/C=C/c3ccco3)n2)cc1OC	inconclusive: 7.94 µM [inhibitor, partial curve]
COCCn1nnnc1C(c1ccc(OC)cc1OC)N1CCN(c2ccccc2F)CC1 (centres undefined)	inactive
COc1ccc(-c2n(CC(=O)OC3CC(C)CCC3C(C)C)c3ccccc3[n+]2C)cc1 (centres undefined)	inconclusive: 7.08 µM [inhibitor, single point]
COc1ccccc1NC(C)C(=O)N/N=C/c1ccccc1OCc1cccc(Br)c1 (centres undefined)	inconclusive: 14.1 µM [inhibitor, single point]
O=S(=O)(Nc1ccc(Cl)cc1)c1ccc(N2CCOCC2)c(NC(=S)NCCN2CCOCC2)c1	inconclusive: 39.8 µM [inhibitor, single point]
O=C(COc1ccc(Br)cc1)N1CCN(c2ccccc2)CC1	inconclusive: 20 µM [inhibitor, partial curve, poor fit]
COc1ccc(C(=O)NC(=S)Nc2ccc(CN3CCOCC3)cc2)cc1OC	inactive
COc1ccc(OCCC(=O)NC2CCCCC2)cc1	inactive
NC(=O)c1ccc(-n2c(CCC(=O)O)ccc2-c2cccs2)cc1	inactive
COc1ccccc1N1CCN(C(=O)c2ccc3c(c2)N(Cc2cc(C)ccc2C)C(=O)c2ccccc2S3(=O)=O)CC1	inactive
CC1=NOC(=O)/C1=C\c1ccc(-c2ccc(Cl)c(C(=O)O)c2)o1	inconclusive: 17.8 µM [inhibitor, partial curve]
CCCn1c(C(=O)OC)cc2c1ccn2-c1ccc(F)cc1	inconclusive: 31.6 µM [inhibitor, partial curve]

Source: PubChem BioAssay AID1460 (National Center for Advancing Translational Sciences (NCATS), 2008)
